Key:
[1] = target: catalytic domain of human DNMT3B, Q772R mutant (human, UniProt Q9UBC3 571-853, Q772R); experiment: crystal structure
[2] = target: catalytic domain of human DNMT3B (3B-CD, residues 571–853) (human, UniProt Q9UBC3 571-853); experiment: SEC

B1: catalytic domain of human DNMT3L (3L-CD, […]) (domain or fragment)
chain: not shown
B1 was tested, and the binding result [1] was “binds” and the “stoichiometry N” value [2] was 1.

Reference: PMC7144912 (Nucleic Acids Research, 2020)
